# Several values for one entry are separate records, joined by “and”; a condition that tells them apart may be missing. Equal values may be shown once. The shares of active, inactive and inconclusive entries below differ from those in the screen. Where the call is inconclusive, the potency comes from a doubtful curve fit. Some compounds were tested as several samples or in several runs, with calls that do not always agree. Activity calls are given as the source filed them. Unless noted, calls follow the shape of the dose curve; as a rule, active = well fitted curve in the direction sought with a large enough effect in the repeat runs; inconclusive = weak or mixed curves; inactive = no such curve, though single readings can be large; an effect the other way counts as inactive or inconclusive.
# Assays:
# [1] = qHTS assay to identify small molecule phospholipidosis (PLD) inducers (AID 1259344; active = well fitted curve in the direction sought with a large enough effect; inconclusive = small, poorly fitted or top-dose-only effect, or another doubt; inactive = no such curve, though single readings can be large; an effect the other way counts as inactive or inconclusive)
# In short: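 HepG2 cells on collagen I, attached 4 h at 37 C, were co-treated with compound and LipidTOX Red dye for 24 h at 37 C, then fixed with paraformaldehyde plus Hoechst 33342 and imaged by high-content microscopy for phospholipid accumulation.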
# [2] = qHTS assay to identify small molecule agonists of the sonic hedgehog signaling (Shh) pathway - cell viability counter screen (AID 1259366); also: nearly all actives have a fitted effect of over 50% in size
# In short: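 Cells are plated at 2,000 per well and left 4hr at 37C, 5% CO2 before compound addition. After 23hr of treatment, CellTiter-Fluor reagent is added for 1hr at 37C and fluorescence is measured.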
# [3] = qHTS assay to identify small molecule antagonists of the sonic hedgehog signaling (Shh) pathway - cell viability counter screen (AID 1259367); also: nearly all actives have a fitted effect of over 55% in size
# In short: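 NIH/3T3-derived Gli1-Luc reporter cells (2,000 per well) rested 4 hr at 37 C, then received DMSO compounds plus conditioned medium. After 23 hr of treatment, CellTiter-Fluor was added for 1 hr at 37C and fluorescence read.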
# [4] = qHTS assay to identify small molecule antagonists of the sonic hedgehog signaling (Shh) pathway (AID 1259369; calls by dose curve; also: nearly all actives have a fitted effect of over 45% in size)
# In short: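 Screening used 3T3Gli1-Luc cells at 2,000 per well, compounds delivered in DMSO, and conditioned medium as agonist stimulus; plates incubated 24hr at 37 C and 5% CO2 before a 30min luciferase step.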
# [5] = biological target: Estrogen receptor beta (Homo sapiens) (UniProt Q92731); experiment: qHTS assay to identify small molecule agonists of the estrogen receptor beta (ER-beta) signaling pathway (AID 1259377; active = well fitted activation curve with a large enough effect in the signal ratio in the repeat runs, not every such curve was filed as active; inconclusive = weak or mixed curves, or effect the other way; the % refers to the signal ratio; as to activation: % is scaled to controls: 0 for no effect and ±100 for the full control effect); details: ER-beta-UAS-bla HEK293T, beta-lactamase FRET ratio, 16 h; activation: at 92.4 µM (top of the series) unless noted
# In short: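 Agonist mode cell assay in GripTite HEK293T cells expressing an ER-beta fusion that drives beta-lactamase from an Upstream Activator Sequence; 16 hr compound exposure at 37C, then 2 h LiveBLAzer B/G FRET substrate at room temperature, fluorescence read-out.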
# [6] = biological target: Estrogen receptor beta (Homo sapiens) (UniProt Q92731); experiment: qHTS assay to identify small molecule antagonists of the estrogen receptor beta (ER-beta) signaling pathway (AID 1259378; active = well fitted inhibition curve with a large enough effect in the signal ratio in the repeat runs, not every such curve was filed as active; inconclusive = weak or mixed curves, or effect the other way; inactive = no such curve, though single readings can be large or run the other way; the % refers to the signal ratio; as to activity, negative = inhibition: % is scaled to controls: 0 for no effect and ±100 for the full control effect); details: ER-beta-UAS-bla HEK293T, beta-lactamase FRET ratio, 16 h; activity, negative = inhibition: at 92.4 µM (top of the series) unless noted
# In short: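 ER-beta-UAS-bla HEK293T (GripTite) cells in 2% charcoal-stripped FBS medium were preincubated 6 hr at 37C, dosed with compound, then stimulated with 1 nM E2 (final) for 16 hr; beta-lactamase reporter read by B/G FRET fluorescence after 2 hr substrate loading.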
# [7] = qHTS assay to identify small molecule agonists of the estrogen receptor beta (ER-beta) signaling pathway - cell viability counter screen (AID 1259380); also: nearly all actives have a fitted effect of over 30% in size
# In short: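 Viability of ER-beta-UAS-bla HEK293T cells was determined by CellTiter-Glo luminescence following 16 hr treatment with test compounds at 37C.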
# [8] = biological target: Thyrotropin receptor (Homo sapiens) (UniProt P16473); experiment: qHTS assay to identify small molecule antagonists of the thyroid stimulating hormone receptor (TSHR) signaling pathway (AID 1259385; calls by dose curve; also: nearly all actives have a fitted effect of over 20% in size; as to activity change, negative = inhibition: % is scaled to controls: 0 for no effect and ±100 for the full control effect); details: TSHR-HEK293 cAMP HTRF, TSH-stimulated antagonist mode; activity change, negative = inhibition: at 92.4 µM (top of the series) unless noted
# In short: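 TSHR-HEK293 cells were plated and held 18 h at 37C/5% CO2, then given compound plus Ro20-1724 and stimulated with TSH at 1.5 ng/mL final. After 30 min at room temperature, cAMP was detected with cAMP-d2/anti-cAMP-cryptate (1 h) by fluorescence.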
# [9] = biological target: Estrogen receptor (Homo sapiens) (UniProt P03372); experiment: qHTS assay to identify small molecule antagonists of the estrogen receptor alpha (ER-alpha) signaling pathway using the BG1 cell line in the presence of 0.1 nM 17-beta-estradiol (AID 1259244); also: nearly all actives have a fitted effect of over 50% in size
# In short: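 Quantitative high-throughput screen in VM7Luc4E2 cells: compound plus 0.1 nM E2 (final), 22 h, 37C, 5% CO2; ONE-Glo added, 30 min room temperature, luminescence measured.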
# [10] = qHTS assay to identify small molecule agonists of the sonic hedgehog signaling (Shh) pathway (AID 1259368; calls by dose curve; also: nearly all actives have a fitted effect of over 15% in size)
# In short: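 Luminescent signal was taken as a measure of Gli1-controlled luciferase expression in stably transfected NIH/3T3-derived cells that had been treated for 24 hr with compounds delivered in DMSO.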
# [11] = qHTS assay to identify small molecule agonists of the androgen receptor (AR) signaling pathway in the presence of an antagonist - cell viability counter screen (AID 1259379); also: nearly all actives have a fitted effect of over 25% in size
# In short: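 In MDA-kb2 cells (human breast carcinoma, MMTV-luciferase), compounds at 15 concentrations plus 3.0uM nilutamide; 16 hr, 37C, 0% CO2; CellTiter-Fluor fluorescence read for viability.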
# [12] = qHTS assay to identify small molecule antagonists of the estrogen receptor beta (ER-beta) signaling pathway - cell viability counter screen (AID 1259382); also: nearly all actives have a fitted effect of over 55% in size
# In short: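 Tox21 10K library tested in qHTS format on ER-beta-bla HEK293T cells stimulated with 1nM E2; 16 hr treatment at 37C. Same-well CellTiter-Glo luminescence served as the cell viability measure.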
# [13] = qHTS assay to identify small molecule HDAC inhibitors (AID 1259364); also: nearly all actives have a fitted effect of over 45% in size
# In short: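 Endogenous HDAC class I/II activity was measured in wild-type HCT-116 cells by HDAC-Glo luminescence after 2 h compound treatment.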
# [14] = qHTS assay to identify small molecule agonists or antagonists of the thyroid stimulating hormone receptor (TSHR) signaling pathway - wild type cell line counter screen (AID 1259384; calls by dose curve; as to cAMP activity change: % is scaled to controls: 0 for no effect and ±100 for the full control effect); details: HEK293 wild type, cAMP HTRF counter-screen; cAMP activity change: at 92.4 µM (top of the series), stronger effect = higher value unless noted
# In short: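 Wild-type HEK293 cells were plated 18 h at 37 C/5% CO2, pin-dosed with compound plus Ro20-1724 medium, held 30 min at room temperature, then given cAMP-d2 and anti-cAMP-cryptate; fluorescence was read after 1 h. Fifteen concentrations, triplicate.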
# Potency is read from the fitted curve at half-maximal effect; tags tell the direction and shape of the fitted curve or compound fluorescence and quenching.
# Chain of UniProt Q92731 (Q92731 whole entry, looked up, the tested form may be a part): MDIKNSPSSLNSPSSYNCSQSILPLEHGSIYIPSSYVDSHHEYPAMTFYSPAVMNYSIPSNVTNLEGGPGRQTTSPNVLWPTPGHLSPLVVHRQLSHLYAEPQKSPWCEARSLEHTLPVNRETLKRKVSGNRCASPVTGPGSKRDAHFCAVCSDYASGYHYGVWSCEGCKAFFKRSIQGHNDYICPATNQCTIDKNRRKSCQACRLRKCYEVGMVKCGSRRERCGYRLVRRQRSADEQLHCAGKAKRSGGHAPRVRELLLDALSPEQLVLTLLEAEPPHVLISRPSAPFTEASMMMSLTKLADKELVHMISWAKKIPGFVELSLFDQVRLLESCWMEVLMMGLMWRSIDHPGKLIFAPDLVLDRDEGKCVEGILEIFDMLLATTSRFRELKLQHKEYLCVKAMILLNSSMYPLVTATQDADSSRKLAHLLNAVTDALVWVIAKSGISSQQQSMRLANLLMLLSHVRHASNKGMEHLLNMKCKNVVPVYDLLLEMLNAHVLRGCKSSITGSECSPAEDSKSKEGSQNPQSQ
# Chain of UniProt P03372 (P03372 whole entry, looked up): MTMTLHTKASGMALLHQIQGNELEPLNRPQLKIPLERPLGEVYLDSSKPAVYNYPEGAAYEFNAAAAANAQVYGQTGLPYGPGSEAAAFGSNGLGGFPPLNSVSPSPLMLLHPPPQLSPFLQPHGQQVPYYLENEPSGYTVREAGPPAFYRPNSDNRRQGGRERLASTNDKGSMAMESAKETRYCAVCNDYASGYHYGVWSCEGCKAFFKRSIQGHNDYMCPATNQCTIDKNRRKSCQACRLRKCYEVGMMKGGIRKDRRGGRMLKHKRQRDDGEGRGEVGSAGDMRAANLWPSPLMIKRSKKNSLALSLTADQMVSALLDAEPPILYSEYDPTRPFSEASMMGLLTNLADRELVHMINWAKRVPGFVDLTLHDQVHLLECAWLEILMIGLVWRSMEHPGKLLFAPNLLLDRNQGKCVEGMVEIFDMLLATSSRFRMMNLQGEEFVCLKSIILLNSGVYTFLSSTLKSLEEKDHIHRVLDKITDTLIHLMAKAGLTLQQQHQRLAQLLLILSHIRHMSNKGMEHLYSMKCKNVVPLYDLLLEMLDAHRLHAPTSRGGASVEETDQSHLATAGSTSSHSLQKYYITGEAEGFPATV
# Chain of UniProt P16473 (P16473 whole entry, looked up): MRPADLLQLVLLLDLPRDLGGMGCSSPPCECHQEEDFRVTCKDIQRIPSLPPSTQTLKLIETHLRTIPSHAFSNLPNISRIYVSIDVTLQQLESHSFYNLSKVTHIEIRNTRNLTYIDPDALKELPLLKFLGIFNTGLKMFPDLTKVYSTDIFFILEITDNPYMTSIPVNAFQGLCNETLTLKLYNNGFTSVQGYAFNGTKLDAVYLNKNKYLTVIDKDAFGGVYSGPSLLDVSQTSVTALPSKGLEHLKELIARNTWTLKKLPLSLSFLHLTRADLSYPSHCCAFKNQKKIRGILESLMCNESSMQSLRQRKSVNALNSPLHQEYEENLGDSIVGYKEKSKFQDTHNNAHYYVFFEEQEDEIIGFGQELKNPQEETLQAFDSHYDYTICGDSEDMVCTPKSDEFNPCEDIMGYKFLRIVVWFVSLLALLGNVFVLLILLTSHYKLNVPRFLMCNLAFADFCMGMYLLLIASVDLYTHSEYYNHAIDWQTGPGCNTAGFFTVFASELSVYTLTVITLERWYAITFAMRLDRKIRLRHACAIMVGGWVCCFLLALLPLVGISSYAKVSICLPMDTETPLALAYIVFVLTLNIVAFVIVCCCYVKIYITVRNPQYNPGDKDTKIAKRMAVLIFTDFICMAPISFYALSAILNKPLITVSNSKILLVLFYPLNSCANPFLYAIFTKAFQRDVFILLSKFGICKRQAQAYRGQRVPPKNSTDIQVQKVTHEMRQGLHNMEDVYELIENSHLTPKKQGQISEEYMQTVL
smiles,measurement,setting,value
CN1CCC[C@@H]1CCO[C@](C)(c1ccccc1)c1ccc(Cl)cc1,Potency,[1],"inconclusive: 28.2 µM [activator, single point]"
same,Potency,[2],active: 23.7 µM
same,Potency,[3],"inconclusive: 13.3 µM [cytotoxic, partial curve]"
same,Potency,[4],active: 26.6 µM
same,Potency,[5],"inconclusive: 13.3 µM [rising, partial curve]"
same,Potency,[6],active: 18.8 µM
same,Potency,[7],active: 23.7 µM
same,Potency,[8],active: 29.8 µM
S=C(NC1CCCCC1)NC1CCCCC1,Potency,[9],active: 53.4 µM and active: 48.6 µM
same,Potency,[3],inactive and active: 30.6 µM
same,Potency,[10],"inconclusive: 47.6 µM [activator, partial curve] and inconclusive: 27.3 µM [activator, single point]"
same,Potency,[4],"inconclusive: 3.37 µM [inhibitor, full curve, poor fit] and active: 24.3 µM"
same,Potency,[7],inconclusive: 13.7 µM [cytotoxic]
O=C(O)c1ccc(S(=O)(=O)N(Cl)Cl)cc1,Potency,[9],active: 38.8 µM
same,Potency,[4],"inconclusive: 43.5 µM [inhibitor, partial curve]"
same,Potency,[11],"inconclusive: 77.4 µM [cytotoxic, single point]"
same,Potency,[8],inactive
O=C(Nc1ccccc1)c1cc(Cl)ccc1O,Potency,[9],active: 12.2 µM
same,Potency,[2],"inconclusive: 27.3 µM [cytotoxic, full curve]"
same,Potency,[6],"inconclusive: 4.86 µM [inhibitor, full curve]"
same,Potency,[7],"inconclusive: 34.4 µM [cytotoxic, partial curve]"
C#C[C@]1(O)CC[C@H]2[C@@H]3CCC4=CC(=O)CC[C@@H]4[C@H]3CC[C@@]21CC,Potency,[9],"inconclusive: 54.5 µM [inhibitor, single point]"
same,Potency,[4],"inconclusive: 30.7 µM [inhibitor, partial curve, poor fit] and inconclusive: 13.3 µM [inhibitor, full curve]"
same,Potency,[7],"inconclusive: 68.6 µM [cytotoxic, single point]"
same,Potency,[12],"inconclusive: 68.6 µM [cytotoxic, single point]"
same,Potency,[8],"inconclusive: 68.7 µM [falling, single point]"
CN(C)c1ccc(C(=C2C=CC(=[N+](C)C)C=C2)c2ccccc2)cc1,Potency,[1],inactive
same,Potency,[13],"inconclusive: 18.8 µM [inhibitor, partial curve, poor fit]"
same,Potency,[2],active: 4.73 µM [middle of 4 runs]
same,Potency,[3],active: 2.98 µM [middle of 4 runs]
same,Potency,[4],active: 172 nM and active: 376 nM and active: 237 nM
same,Potency,[11],active: 3.86 µM and active: 3.35 µM and active: 2.66 µM
same,Potency,[14],inconclusive: 48.6 µM [partial curve]
same,cAMP activity change,[14],"inconclusive: -2.17% [at 42.5 µM, stronger effect = higher value]"
CCCCCCOC(=O)c1ccc(O)cc1,Potency,[13],active: 24.4 µM and active: 27.3 µM
same,Potency,[2],"inconclusive: 61.2 µM [cytotoxic, single point] and inconclusive: 54.5 µM [cytotoxic, partial curve, poor fit]"
same,Potency,[3],"inconclusive: 54.5 µM [cytotoxic, partial curve] and inconclusive: 54.5 µM [cytotoxic]"
same,Potency,[10],"inconclusive: 7.7 µM [activator, partial curve] and inconclusive: 8.63 µM [activator, partial curve, poor fit]"
same,Potency,[4],"inconclusive: 30.7 µM [inhibitor, full curve, poor fit] and inconclusive: 61.1 µM [inhibitor, partial curve, poor fit]"
same,activation,[5],inconclusive: -3.2%
same,Potency,[7],"inconclusive: 68.7 µM [cytotoxic, partial curve, poor fit] and active: 48.6 µM"
same,Potency,[12],"inconclusive: 43.3 µM [cytotoxic, partial curve]"
same,Potency,[8],"inconclusive: 2.17 µM [falling, single point]"
COc1cc([C@@H]2c3cc4c(cc3[C@H](O)[C@H]3COC(=O)[C@H]23)OCO4)cc(OC)c1OC,Potency,[1],"inconclusive: 0.0251 µM [activator, full curve, poor fit]"
same,Potency,[3],"inconclusive: 4.3 nM [cytotoxic, full curve, poor fit] and active: 106 nM"
same,Potency,[4],active: 5.4 nM and active: 16.8 nM
same,"activity, negative = inhibition",[6],inconclusive: 27.8% [at 42.5 µM]
same,Potency,[11],"inconclusive: 17.2 nM [cytotoxic, full curve] and inconclusive: 4.7 nM [cytotoxic, full curve]"
Cc1c(C)c2c(c(C)c1O)CCC(C)(COc1ccc(CC3SC(=O)NC3=O)cc1)O2 (configuration not stated),Potency,[1],"inconclusive: 31.6 µM [activator, partial curve, poor fit]"
same,Potency,[4],"active: 54.5 µM and inconclusive: 298 nM [inhibitor, partial curve, poor fit]"
same,Potency,[6],"inconclusive: 13.7 µM [rising, full curve]"
same,"activity, negative = inhibition",[6],inconclusive: -45.3% [at 42.5 µM]
same,Potency,[7],"inconclusive: 3.44 µM [cytotoxic, full curve]"
S=P(N1CC1)(N1CC1)N1CC1,Potency,[1],inactive
same,Potency,[2],"inconclusive: 72.3 µM [cytotoxic, single point]"
same,Potency,[3],active: 57.4 µM
same,Potency,[8],"inconclusive: 2.88 µM [falling, single point]"
